Results published in PubChem BioAssay AID504466 (National Center for Advancing Translational Sciences (NCATS), 2011).
Among all 330,000 compounds or so, about 4,200 (1.3%) were called active. The inconclusive results got no clear call from the source; some entries with a clear call stand among them for comparison. Calls follow the shape of the dose curve; as a rule, active = well fitted activation curve with a large enough effect; inconclusive = small, poorly fitted or top-dose-only effect; inactive = no such curve, though single readings can be large or run the other way. Where the call is inconclusive, the potency comes from a doubtful curve fit.

Test: qHTS screen for small molecules that induce genotoxicity in human embryonic kidney (HEK293T) cells expressing luciferase-tagged ELG1; also: nearly all actives have a fitted effect of over 60% in size
Settings: HEK293T ELG1-luciferase reporter, luminescence, 16 h; series mostly up to 46 µM
Method in brief: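 Step 1: seed 2,000 HEK293T ELG1-luciferase cells per well. Step 2: add compound or DMSO, incubate 16 hr at 37 °C. Step 3: ONE-Glo, 30 min at room temperature, read luminescence.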
Potency is read from the fitted curve at half-maximal effect; tags tell the direction and shape of the fitted curve.

SMILES | Potency
N/C(=N\OC(=O)C1CCCCC1)c1ccccn1 | inconclusive: 23.1 µM [activator, partial curve, poor fit]
COc1ccc(-c2nc3cc(C)ccn3c2NC2CCCCC2)cc1SC1CCCCC1 | inactive
COc1nc(C)ccc1-c1noc(-c2cccnc2)n1 | inconclusive: 18.3 µM [activator, partial curve]
Cc1cc(Cl)c(S(=O)(=O)NC2CCCC2)cc1OCC(=O)NC1CCCCC1 | inactive
CCSc1nsc(NC(=O)Nc2cccc(OC)c2)n1 | inactive
N#CCc1nc(CSc2nc3ccccc3o2)cs1 | inconclusive: 18.4 µM [activator, single point]
COCCNc1c(-c2cc3ccc(C)c(C)c3[nH]c2=O)nc2ccccn12 | inconclusive: 2.06 µM [activator, full curve]
CCCCCCSc1ccc(-c2nc3ccc(C)cn3c2NC2CCCCC2)cc1 | inactive
CC1=C(C(=O)OCc2ccc3c(c2)OCO3)C(c2ccc(F)cc2)NC(=O)N1 (stereo unspecified) | inactive
CN(C)c1ccc(Nc2nc(N)c3ccccc3n2)cc1 | inconclusive: 0.164 µM [activator, partial curve, poor fit]
Cc1nc(-c2ccc(NC(=O)c3cccs3)cc2)cs1 | inconclusive: 1 µM [activator, full curve, poor fit]
Cc1cc2cc(CNC(=O)c3cccs3)ccc2[nH]1 | inconclusive: 20.6 µM [activator, partial curve]
COc1ccc(N(CC(=O)NCCC2=CCCCC2)S(=O)(=O)c2ccccc2)cc1OC | inactive
Cc1ccc(-c2cc(C(F)F)nc3sc4c(=O)[nH]cnc4c23)cc1 | inconclusive: 29.1 µM [activator, single point]
CN(C)S(=O)(=O)c1ccc(C(=O)Nc2ccc3ncccc3c2)cc1 | inconclusive: 20.6 µM [activator, partial curve, poor fit]
Cc1ccc(NC(=O)c2nnn(-c3cccc(C(F)(F)F)c3)c2N)cc1 | inactive
O=C(NCC1COc2ccccc2O1)c1ccc(F)c(S(=O)(=O)N2CCOCC2)c1 (stereo unspecified) | inactive
COc1cccc(C(=O)NCCC2=CCCCC2)c1 | inconclusive: 1.46 µM [activator, partial curve, poor fit]
COc1cccc(C(=O)NOCc2ccccc2)c1OC | inconclusive: 13 µM [activator, partial curve]
CN(C(=O)Nc1cnc2ccccc2c1)c1ccccc1 | inconclusive: 20.6 µM [activator, single point]
Cc1ccccc1-c1cc(-c2ccccc2O)n[nH]1 | inconclusive: 10.3 µM [activator, partial curve]
